Values marked as one replicate rest on one cluster of the flow cell; about a third of the high ones do not repeat.
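Further: ATP exposure 15 min at 22 °C before imaging.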

The subject of this series is ATP. The series can be described thus: switch fluorescence ratio, 500 uM ATP over buffer (Cy3 cluster intensity, sum of 5 cycles each) (fold (ratio)); higher = stronger signal-on switching upon ATP binding; sequences stand for … in TCGTCGGCAGCGTCAGATGTGTATAAGAGACAGTTTTTTTTTTTTTTTTTTTTTTTTT…TC. To be noted: aptamer strand: ATP DNA aptamer (quencher-CACCTGGGGGAGTATTGCGGAGGAAGG + anchor), 100 nM annealed; ATP concentration: 500 uM; one replicate. In outline:
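Clusters carrying Cy3-labelled switching strands on a modified Illumina MiSeq flow-cell were annealed to 100 nM quencher-labelled ATP aptamer and imaged in selection buffer. They were imaged again after 15 min with 500 uM ATP at 22 °C, over five buffer/ATP cycles with NaOH stripping and re-annealing in between. For each cluster, the fluorescence ratio is the summed Cy3 intensity of the target cycles divided by that of the buffer cycles, averaged per switch-domain sequence. Clusters outside 100-1000 RFU were left out.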
As for TTAATGAAGC, the switch fluorescence ratio worked out at 0.993.

With AATATACAGT, the switch fluorescence ratio was found to be 1.07. With TCACGCTTGC, the switch fluorescence ratio was 1.14. As to CGACAGGTCA, the switch fluorescence ratio was determined as 1.04. With CGTGACAGTT the figure was 0.997; with TACAACTACG, 1.18; with ATGTAATGG, 0.99. With CGCACATAAG the figure was 1.36. With TTCGCTGTAA the figure was 1.26; with AGATTACTGA, 1.05; with GGCTGCGTA, 1.06. As for GAAAAGACGT, the switch fluorescence ratio is 0.957. On to TTATAGACTC, for which the switch fluorescence ratio was found to be 1.06. To AGTTAATGGG belongs 0.993; to CCTCCGGGAG, 4.95; to GGTACGAGAA, 0.96. To CTGGGTCTAG belongs 1.03. To TAGTCTACCT belongs 1.13; to TAAGTATCTG, 0.983. For ATCGATGTGG, the switch fluorescence ratio was determined as 1. To ACGGAAAGTA belongs 1.01; to GGTTGTTCGG, 0.991; to GCCAATCATG, 0.959. To GATTGGCTGC belongs 0.944; to TATCCCAGTC, 1.05. With CTCGGAGGAC the figure was 1.12. In the case of GATAGTTCCG, the switch fluorescence ratio was found to be 1.03.

For TAAGAGCGCA, the switch fluorescence ratio turned out to be 0.977.

Regarding GTTTAAAGTT, the switch fluorescence ratio worked out at 1.01. To CGGCGAGCAC belongs 1.04; to CCTAAATATT, 1.04. To ATTTGATATT belongs 1.14; to GTTGCAGGTA, 0.986. To GAGAGTAGAA belongs 0.968; to GCAGTGGTGT, 1.01. In the case of TTGTGCCGCG, the switch fluorescence ratio came out at 0.998. To ATTGGACACG belongs 0.999; to CGTGTTTG, 0.989; to CGTCAGCGCA, 1.29.

For the sequence TAAACAAGGC, the switch fluorescence ratio was 1.02.

As for CGTGAATATG, the switch fluorescence ratio was 0.989. To TTGGTCGT belongs 0.923; to CGAGTTACAC, 1.06. With GCTAGAGTC the figure was 0.992.

As to GTGGCTGTGA, the switch fluorescence ratio is 0.938. On to AGGCTGGCCC, for which the switch fluorescence ratio is 1. To TGGCATAGTG belongs 1.05; to GGCGACAGTG, 0.961; to TTCGGTTGCG, 0.971. TGGACTTTAC: the switch fluorescence ratio amounted to 1.24. As to AGAGTAATGA, the switch fluorescence ratio was determined as 1.03. To CTCGGATCTC belongs 1.05; to GGCTACCCAG, 1.04. To GGTCTGCCGG belongs 1.06; to CTTATATTG, 1.06. With GCTCTCGGAC the figure was 1.7. As for CTTATCTAAC, the switch fluorescence ratio was 1.06. For CATGATCACA, the switch fluorescence ratio stood at 1.02.

Take CTTGGTAAAT: the switch fluorescence ratio came out at 1.01. With TATGATTAAA the figure was 1.01; with GATGACTGAA, 0.985. With GGTAAGTCTG the figure was 0.973; with GGTGAAGCGT, 0.961; with TATAGAATC, 1. To TGCGAGTACA belongs 0.984; to CGCTGAGACC, 1.1; to CAGCTCAGCG, 0.955. GAGAAGGAGC: the switch fluorescence ratio was determined as 1.02. To TTGGTATGGA belongs 0.993; to AAGCTATCCA, 1.03. With CCGCTCTTCG the figure was 1.13; with TCTGGCGTTT, 0.996; with CTTTAGGACT, 1.02. With GCTCAGTCAG the figure was 1.3. Regarding ACTCTCAAAA, the switch fluorescence ratio came out at 0.98.

For the sequence ACGTCATGC, the switch fluorescence ratio was 1.4. To TTGCAAAAAG belongs 0.941; to ATTTGACCAA, 1.01. For the sequence TTAGCTCAGA, the switch fluorescence ratio worked out at 0.975.

In the case of TCGGGCCGTC, the switch fluorescence ratio amounted to 1.02.

Turning to ATGTCTGGTA, the switch fluorescence ratio was 0.988. Turning to GGTCCGTTGG, the switch fluorescence ratio turned out to be 0.967.

Regarding TAGATCGCAA, the switch fluorescence ratio worked out at 1.84.

TATCTGGCTA: the switch fluorescence ratio is 0.983. CGGGGCGCAA: the switch fluorescence ratio was found to be 2. With GTTTCTTAGG the figure was 0.977; with ATAGGTACTC, 1.02; with AGCTTGGGAT, 1. With CGGGCCAGCC the figure was 1.07; with AGTTTTG, 0.976; with TCACAGTACA, 1.4. To GAGGAGGGAA belongs 1.03; to TTCACGTGGG, 0.996.

As for ATTTACTTAC, the switch fluorescence ratio is 1.26. To ATTACGTAAC belongs 1.44; to TGAATTAGGG, 1.03; to ACCATTTTT, 0.986. Consider CAGCGGGTAG, for which the switch fluorescence ratio turned out to be 1.02. To CGTCCTGAGC belongs 1.03. With GGGTAGAGCA the figure was 0.984. With AACGGAAGTT the figure was 1.03. As for GTCTACGTCC, the switch fluorescence ratio came to 1.03. For CCGGCGCGCG, the switch fluorescence ratio turned out to be 1.01. To TCAATAAAAC belongs 0.983; to ACTCTGCGCG, 1.26; to TCCCGGGGAG, 1.33. Turning to CGCAGTGTGG, the switch fluorescence ratio turned out to be 0.982.

Take GCGTTATTGT: the switch fluorescence ratio amounted to 0.951. With CATTCGCTGT the figure was 1.98; with AGTATAGGAA, 0.982. To TTAGTGACTT belongs 0.993. To AACACGTGTT belongs 0.965; to GTTATGCAAT, 1.11; to CCTACGGCTG, 1.8.

With TTTTGGGGA, the switch fluorescence ratio turned out to be 1.01. TGACCGATTC: the switch fluorescence ratio came to 1.04. GGTGGGTATC: the switch fluorescence ratio turned out to be 1.01. To GGGGCTTG belongs 0.977; to ACAGATGGAC, 1.02; to TTAAGCCTGC, 0.959.
